# Measurements taken from article PMC4336329 (PLoS ONE, 2015).
# The whole screen tested about 310,000 compounds, of which about 14,000 (4.5%) showed an effect of 50% or more. Effects have a minus sign here. This is one part of the list. Where a SMILES comes first, the peptide text is derived from it. The star is where a group is joined. Boc = CC(C)(C)OC(=O)*; Bn = c1ccc(C*)cc1; NHNH2 = NN*
# Biological target: human ether-à-go-go-related gene (hERG) potassium channel (human, UniProt Q12809)
# Assay: primary screen, population patch clamp on CHO cells stably expressing hERG
# 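Also: peak tail current of the secondary pulse compared with the same well before compound.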
# Sequence of human ether-à-go-go-related gene (hERG) potassium channel (Q12809 whole entry, looked up): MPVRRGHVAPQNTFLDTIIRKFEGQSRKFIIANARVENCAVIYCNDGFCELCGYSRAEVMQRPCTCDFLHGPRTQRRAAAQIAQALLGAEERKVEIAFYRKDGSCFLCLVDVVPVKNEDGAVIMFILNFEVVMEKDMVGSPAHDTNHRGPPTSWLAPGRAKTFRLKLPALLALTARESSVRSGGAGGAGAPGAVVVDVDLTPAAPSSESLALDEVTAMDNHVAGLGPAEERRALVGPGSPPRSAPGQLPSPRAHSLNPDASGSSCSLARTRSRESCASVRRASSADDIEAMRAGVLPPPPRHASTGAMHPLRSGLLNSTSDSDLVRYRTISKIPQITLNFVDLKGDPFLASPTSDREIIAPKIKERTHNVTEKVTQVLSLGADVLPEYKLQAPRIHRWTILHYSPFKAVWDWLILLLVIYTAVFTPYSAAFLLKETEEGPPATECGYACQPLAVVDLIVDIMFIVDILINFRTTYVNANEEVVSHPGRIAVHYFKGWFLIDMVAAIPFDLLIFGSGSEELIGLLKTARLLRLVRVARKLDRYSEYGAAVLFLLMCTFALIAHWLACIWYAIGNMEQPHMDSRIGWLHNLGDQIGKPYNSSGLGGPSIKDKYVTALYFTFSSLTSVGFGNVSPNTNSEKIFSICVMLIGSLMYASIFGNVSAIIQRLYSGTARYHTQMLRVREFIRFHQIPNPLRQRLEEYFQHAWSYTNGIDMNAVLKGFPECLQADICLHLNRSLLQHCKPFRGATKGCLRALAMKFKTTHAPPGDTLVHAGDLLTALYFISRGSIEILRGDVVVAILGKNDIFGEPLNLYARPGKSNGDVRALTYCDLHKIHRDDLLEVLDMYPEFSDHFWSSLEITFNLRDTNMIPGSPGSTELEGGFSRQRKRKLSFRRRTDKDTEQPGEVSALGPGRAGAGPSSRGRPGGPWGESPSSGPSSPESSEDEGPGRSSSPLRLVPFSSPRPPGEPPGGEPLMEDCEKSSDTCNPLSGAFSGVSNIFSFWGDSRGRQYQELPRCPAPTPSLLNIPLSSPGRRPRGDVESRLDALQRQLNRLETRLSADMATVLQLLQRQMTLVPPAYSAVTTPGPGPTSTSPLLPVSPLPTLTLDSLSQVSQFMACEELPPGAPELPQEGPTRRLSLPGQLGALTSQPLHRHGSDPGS
row,Compound,"hERG current change (%, negative = inhibition) at 10uM"
1,COc1ccc(S(=O)(=O)N2CCN(C(=O)c3cc(-c4ccccc4OC)n[nH]3)CC2)cc1,-6.19%
2,O=C1C=C(c2ccc(Br)c3ccccc23)C[C@@H](c2ccc3c(c2)OCO3)C1,1.98%
3,CCNS(=O)(=O)c1ccc(S(=O)(=O)N(Cc2ccccn2)C2CCCCC2)cc1,12.5%
4,O=C(NN1C(=O)NC2(CCCCC2)C1=O)c1ccc(-c2ccccc2Cl)o1,-6.36%
5,O=C(COC(=O)c1ccccc1Cc1ccccc1)Nc1ccc(SC(F)F)cc1,3.47%
6,CN(C(=O)c1cccc(Br)c1)C1CCS(=O)(=O)C1 (stereo not drawn),-5.59%
7,Cc1ccc2nc(-c3cccc(Br)c3)cc(C(=O)NC3CC3)c2c1,13.7%
8,COc1cc2[nH]c(=O)n(CCC(=O)NC3CCCC3)c(=O)c2cc1OC,6.49%
9,O=C(CN1CCCCCC1)Nc1ccc([N+](=O)[O-])cc1Br,6.13%
10,COC(=O)c1c(NC(=O)c2nn(C)cc2Cl)sc2c1CCCC2,7.27%
11,Cc1cccc(C(=O)NN2S(=O)(=O)c3ccccc3S2(=O)=O)c1,18.2%
12,O=[N+]([O-])c1ccc2c(c1)[nH]c(=S)n2-c1ccccc1,36.4%
13,CCOC(=O)C1=C(N2CCCCC2)c2cc3c(n2C1=O)CCCC3,-11.3%
14,COc1cc(C(=O)Nc2ccc(S(=O)(=O)Nc3cc(C)nc(C)n3)cc2)cc(OC)c1OC,19.3%
15,Cc1ccc(Nc2c([N+](=O)[O-])ccc3nonc23)c(C)c1,19.2%
16,CCOC(=O)c1nnn(-c2nonc2N)c1CSc1ccccc1,-33.3%
17,CCOC(=O)C1=C(C)N(C)C(=O)NC1c1c(OC)ccc2ccccc12 (stereo not drawn),17.7%
18,Cc1cc(C)cc(C(=O)Nc2cccc(NC(=O)c3ccco3)c2)c1,-14.2%
19,COc1ccc(CN(C)C(=O)c2ccc(Cl)c(S(=O)(=O)NCc3cccnc3)c2)cc1F,-46.5%
20,COc1ccccc1NS(=O)(=O)c1ccc(C)c(C(=O)NCCCN2CCCC2=O)c1,14%
21,Cn1cnc(S(=O)(=O)NC2CCN(Cc3ccccc3)CC2)c1,20%
22,O=c1[nH]c(CN2CCN(S(=O)(=O)c3ccc4c(c3)OCCO4)CC2)nc2sc3c(c12)CCCC3,8.84%
23,CCCCCN(C(=O)CCC(=O)OCC(=O)NCc1ccc(OC)cc1)c1c(N)n(CCCC)c(=O)[nH]c1=O,-3.86%
24,O=S1(=O)C=CC(c2ccccc2)C1 (stereo not drawn),13.1%
25,CC(O)CN(C)CC/C=C1/c2ccccc2CSc2ccccc21.Cl (stereo not drawn),-21.9%
26,Cc1cc(C)nc(NC(=O)c2ccc(Cl)cc2[N+](=O)[O-])c1,-4.62%
27,Cc1cc(=O)[nH]c(-c2cccnc2)n1,31.8%

row,Compound,"hERG current change (%, negative = inhibition) at 10uM"
1,COc1ccc(Br)cc1CN(C)CC(=O)Nc1cc(Cl)ccc1Cl,4.8%
2,CCCCN(CC)CCNC(=O)c1cc2c(=O)n(C)c3ccccc3c2n1C,-15.6%
3,CC(C)n1nc(C(=O)Oc2ccc(Cl)cc2)c2ccccc2c1=O,5.39%
4,CCCCC1CN2CCc3c([nH]c4ccccc34)C2(C)C1.Cl (stereo not drawn),-47.2%
5,Cc1ccc(N2C(=O)c3ccccc3C2Nc2cccnc2)nc1 (stereo not drawn),-12.3%
6,CC(OC(=O)c1ccc(Cl)c(S(=O)(=O)N2CCOCC2)c1)C(=O)Nc1ccc(S(N)(=O)=O)cc1 (stereo not drawn),19.5%
7,C=CCn1c(O)c(C(CC)=NCCc2ccccc2)c(=O)[nH]c1=O,-28.1%
8,CC(C)CC(NC(=O)C(COCc1ccccc1)NC(=O)OC(C)(C)C)C(=O)NN (stereo not drawn) (Boc-Ser(Bn)-Leu-NHNH2; configuration not given here),23.1%
9,N#CCC(=O)Nc1ccc(C(=O)NCc2cccc(Cl)c2)cc1,8.88%
10,O=C(CSc1nc2ccc([N+](=O)[O-])cc2[nH]1)c1ccc2ccccc2c1,4.45%
11,CCNC(=S)N/N=C/c1cc(Br)cc(Br)c1OC,-6.01%
12,NNc1nc2c(-c3ccc(F)cc3)nnn2c2ccccc12,9.92%
13,CC1(C)CCCC(C)(C)N1CC(O)COCCOc1ccc(Br)cc1.Cl (stereo not drawn),-67.5%
14,O=C(O)/C=C/c1cn(Cc2ccccc2Cl)nc1-c1ccccc1,20.5%
15,COc1cccc(NC(=O)CCC(=O)Nc2ccc3nc(N4CCOCC4)cc(C)c3c2)c1,23.4%
16,O=C(NCc1ccco1)c1noc2c1CCCC2,-3.59%
17,COc1ccc(NC(=O)COC(=O)c2ccc([N+](=O)[O-])o2)cc1Cl,24.1%
18,CC(=O)Nc1ccc(-c2cc(-c3ccc(NC(C)=O)cc3)nc(-c3ccc(NC(C)=O)cc3)n2)cc1,2.91%
19,Cn1c(SCc2nnc(-c3ccccc3)o2)nc2ccccc21,-18.7%
20,Cc1cccc(N2CCN(Cc3ccc([N+](=O)[O-])o3)CC2)c1C,0.379%
21,O=c1nc(-c2ccccc2)cc(-c2ccccc2)[nH]1,-2.06%
22,COC(=O)C1=C(c2ccc(OC(F)(F)F)cc2)C[C@@H]2CC[C@H]1N2C(=O)NCCCOC(C)C,-29.9%
23,O=C(O)C(Oc1ccc2cc(-c3ccc(Cl)cc3)c(=O)oc2c1)c1ccccc1 (stereo not drawn),26.4%
24,Cn1ncc(Cl)c1C(=O)Nc1nc2ccc(Cl)cc2s1,-0.803%
25,COc1cc(C(=O)OCC(=O)c2cc(C)n(CC3CCCO3)c2C)cc(OC)c1C (stereo not drawn),-68%
26,Cc1cc(N(C)C)ccc1N=Nc1ccc2ncccc2c1,9.49%
27,Cc1ccc(C)c(N2CCN(C(=S)Nc3ccc4nc(N5CCOCC5)cc(C)c4c3)CC2)c1,-38.7%
